# The whole screen tested about 390,000 compounds, of which about 930 (0.24%) were called active. This list was built around the results that the source calls inconclusive (neither active nor inactive); the mix of calls is not that of the screen. The call rests on the fitted dose curve; in most records, active means well fitted activation curve with a large enough effect; inconclusive means small, poorly fitted or top-dose-only effect; inactive means no such curve, though single readings can be large or run the other way. Potencies of inconclusive entries are doubtful fits and often do not repeat.
# Experiment: qHTS for Suppressors of FUS Proteinopathy: Primary screen using FUS-linked yeast assay; further: nearly all actives have a fitted effect of over 55% in size;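 on growth rescue (activation): plate controls were DMSO vehicle for no effect and reference control for full effect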
# Settings: S. cerevisiae FUS-expressing, OD600, 24 h; Potency: growth rescue; growth rescue (activation): at 76.6 µM (top of the series)
# Outline: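 Restored growth of FUS-toxic S. cerevisiae, read as 600 nm absorbance after 24 h at 30C in galactose medium (starting OD 0.005). Controls CP55940 and DMSO.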
# Potency means the concentration at half of the fitted maximal effect; tags describe the fitted curve by direction and shape.
SMILES,growth rescue (activation),Potency
C=CCN1C(=O)C(C)(C)N(C(C)=O)c2ccccc21,inactive: -26.2%,–
CCCCn1nnc(NC(=O)c2ccc(-c3cccc(Cl)c3)o2)n1,–,"inconclusive: 17.8 µM [activator, partial curve]"
CCOC(=O)c1c(C)c(C(=O)Nc2ccc(N(C)C)cc2)c(C)n1CC,–,"inconclusive: 17.8 µM [activator, single point]"
CC1=C(c2ccc(Cl)cc2)S(=O)(=O)N=C1N1CCN(c2cccc(C(F)(F)F)c2)CC1,inactive: 25.3%,–
COc1ccccc1CNC(=O)CCC1N=C2c3ccccc3N=C(SCc3ccccc3Cl)N2C1=O (stereo not drawn),–,"inconclusive: 50.1 µM [activator, single point]"
CC(C)(C)N(Cc1ccccc1)C(=O)COC(=O)CNS(=O)(=O)c1ccc2ccccc2c1,–,"inconclusive: 28.2 µM [activator, single point]"
CCc1ccc(NC(=O)Cn2c(=O)oc3cc(S(=O)(=O)NCc4ccccc4)ccc32)cc1,–,"inconclusive: 31.6 µM [activator, single point]"
O=C(O)C/C(=C\c1cccc(NC(=O)c2ccccc2Cl)c1)c1nc2ccccc2s1,–,"inconclusive: 15.8 µM [activator, partial curve, poor fit]"
Cc1ccc(S(=O)(=O)N2CCCCC2)cc1NC(=O)COC(=O)C1(C)CC1(Cl)Cl (stereo not drawn),–,"inconclusive: 25.1 µM [activator, single point]"
C[C@H]1CCCCO[C@@H](CN(C)S(=O)(=O)c2ccc(F)cc2)[C@@H](C)CN([C@@H](C)CO)C(=O)c2cc(NC(=O)Nc3ccc4c(c3)OCO4)ccc2O1,–,"inconclusive: 25.1 µM [activator, single point]"
COc1ccc(CCNC(=O)CCCCCn2c(=O)[nH]c3cc(OC)c(OC)cc3c2=O)cc1OC,inactive: -29.5%,–
Cc1cc(-c2nc3ccccc3[nH]2)ccc1N,inactive: -0.944%,–
COc1ccc(CNc2nc(-c3cccnc3)nn2C(=O)CC(C)C)cc1,–,"inconclusive: 39.8 µM [activator, single point]"
CCCCCC(=O)NC(NC(=S)N1CCOCC1)C(Cl)(Cl)Cl (stereo not drawn),inactive: -7.89%,–
CCOC(=O)c1cccc(NC(c2nnc(-c3ccccc3)o2)c2ccccc2F)c1 (stereo not drawn),–,"inconclusive: 39.8 µM [activator, partial curve]"
CN(Cc1ccccc1)C(=O)c1ccc(NC(=O)Cc2cccc(NC(=O)C3CCN(C(=O)C4CCC4)CC3)c2)cc1,–,"inconclusive: 22.4 µM [activator, partial curve, poor fit]"
COCc1cc(C)nc(OCC(=O)N/N=C/c2ccc(-c3cc([N+](=O)[O-])ccc3C)o2)c1C#N,inconclusive: 83.4% [activator],–
O=C(Nc1ccc(Cl)cc1F)C1CCN(S(=O)(=O)c2cccnc2)CC1,–,"inconclusive: 44.7 µM [activator, single point]"
CC1CCN(C(=O)CCn2c(=O)oc3ccc(Cl)cc32)CC1,inactive: -25.9%,–
Fc1ccccc1CNc1ncnc2sccc12,inactive: 20.9%,–
CCC1=C(OC(=O)N(CC)CC)N2C(=O)OC(=NCC3CC3)[C@]2(Cc2ccccc2)[C@H]2C1=CC[C@H]1C(=O)N(C)C(=O)[C@H]12,–,"inconclusive: 12.6 µM [activator, partial curve]"

SMILES,growth rescue (activation),Potency
O=C(Nc1ccc2nc(-c3ccco3)c(-c3ccco3)nc2c1)N1CCCCCC1,–,"inconclusive: 10 µM [activator, full curve]"
CCCCC1CC2=C(C(=O)OC(C)(C)O2)C(c2cccc3ccccc23)O1 (stereo not drawn),inactive: 33.9%,–
COc1ccc(CN(C(=O)c2oc3ccc(F)cc3c2C)C2CCS(=O)(=O)C2)cc1 (stereo not drawn),–,"inconclusive: 31.6 µM [activator, partial curve, poor fit]"
COc1cccc(-c2c(-c3ccccc3OC)ncn2Cc2cccc(-c3ccccc3)c2)c1,–,"inconclusive: 3.55 µM [activator, full curve]"
COC(=O)c1sccc1NC(=O)Nc1ccc(C)cc1,inactive: 15.3%,–
CCCCCNC(=O)C(CCc1ccccc1)n1c(=O)c(-c2cc3ccccc3[nH]2)nc2ccccc21 (stereo not drawn),–,"inconclusive: 31.6 µM [activator, single point]"
CN(Cc1ccccc1F)C(=O)c1cccc(NC(=O)CC2SC(N3CCCCC3)=NC2=O)c1 (stereo not drawn),–,"inconclusive: 39.8 µM [activator, partial curve, poor fit]"
CC(C)=CCc1c(O)c(CC=C(C)C)c2c(c1O)C(=O)CC(c1ccc(O)cc1)O2 (stereo not drawn),–,"inconclusive: 50.1 µM [activator, single point]"
Cn1cc(/C=C(\C#N)C(=O)Nc2ncc(Cc3ccc(Cl)cc3)s2)c2ccccc21,–,"inconclusive: 11.2 µM [activator, single point]"
O=C(Nc1nccs1)c1cc(Cl)nc2ccccc12,–,"inconclusive: 31.6 µM [activator, partial curve, poor fit]"
COc1ccc(-c2noc(CSc3nnc(Cc4ccccc4)n3-c3ccc(Cl)cc3)n2)cc1,–,"inconclusive: 22.4 µM [activator, partial curve, poor fit]"
C=CCN1C(c2ccc(Br)cc2)=CS/C1=C(\C#N)c1nnc(N2CCOCC2)n1-c1ccccc1,–,"inconclusive: 31.6 µM [activator, partial curve, poor fit]"
COc1ccc([C@@H]2CC=C(C(=O)O)[C@H](c3ccccc3)N2S(=O)(=O)c2ccccc2C)cc1,–,"inconclusive: 35.5 µM [activator, single point]"
O=S1(=O)N[C@H](Cc2ccccc2)COc2cccc(N3CCSCC3)c21,–,"inconclusive: 50.1 µM [activator, single point]"
O=C(CSC1=Nc2ccccc2C2=NC(CC(=O)NC3CCCCC3)C(=O)N12)NCc1ccco1 (stereo not drawn),–,"inconclusive: 50.1 µM [activator, single point]"
CCOC(=O)c1cccc(NC(=O)N2CC(CC)Sc3ccccc32)c1 (stereo not drawn),inactive: 27.6%,–
CC1CCCN(Cc2nc3c(c(=O)n(C)c(=O)n3C)n2Cc2ccc(Cl)cc2Cl)C1 (stereo not drawn),inactive: -21.9%,–
NS(=O)(=O)c1ccc(CCNC(=O)c2ccc3nc(Cc4ccccc4)oc3c2)cc1,inactive: 17%,–
CC(C)(C)C1CCc2c(sc(NC(=O)CCC(=O)O)c2C(=O)Nc2ccccc2C(F)(F)F)C1 (stereo not drawn),–,"inconclusive: 28.2 µM [activator, single point]"
Cn1c(SCC(=O)NCc2cccs2)nnc1-c1ccncc1,–,"inconclusive: 3.98 µM [activator, full curve, poor fit]"
C[C@H]1CN([C@@H](C)CO)C(=O)Cc2cc(NS(=O)(=O)c3ccc(Cl)cc3)ccc2O[C@@H]1CN(C)C(=O)Nc1cccc2ccccc12,–,"inconclusive: 35.5 µM [activator, single point]"

SMILES,growth rescue (activation),Potency
CCCS(=O)(=O)NCCc1cc2c(C)ccc(C)c2[nH]c1=O,inactive: 1.1%,–
CCN(CC(=O)Nc1ccc(NC(C)=O)cc1)C(=O)CCCOc1ccc(C(C)(C)C)cc1,–,"inconclusive: 31.6 µM [activator, single point]"
Cc1cc(SCC2=NNC(=O)C2)c(Cl)cc1Cl,–,active: 35.5 µM
CCCn1ccc2c(OCC(=O)Nc3ccc(NC(C)=O)cc3)cccc2c1=O,inactive: 24.7%,–
O=C(Nc1cccc(S(=O)(=O)NC2=NCCCCC2)c1)c1cc(-c2ccncc2)nc2ccccc12,–,"inconclusive: 14.1 µM [activator, partial curve]"
COc1ccc(NC(=O)c2sc3nc(-c4cccnc4)ccc3c2N)cc1,inactive: 17.2%,–
CCCNC(=O)c1cc2c(c(-c3cccc(-c4cc5ccccc5o4)c3)n1)[C@@H](CCO)N(C(=O)NC(C)C)C2,–,"inconclusive: 17.8 µM [activator, partial curve, poor fit]"
Cc1ccc(-n2nc(C(=O)N3CCOCC3)cc2-c2ccc(Cl)cc2)cc1,inactive: 19.1%,–
Cc1cccc(-c2nc(CSCC(=O)N3CCN(c4ccccc4)CC3)c(C)o2)c1,–,"inconclusive: 50.1 µM [activator, single point]"
OC(c1ccc(F)cc1)c1nc(-c2csc3ccccc23)cs1 (stereo not drawn),–,"inconclusive: 31.6 µM [activator, partial curve, poor fit]"
O=c1c2cc(F)ccc2[nH]c(=S)n1Cc1ccc(F)cc1,inactive: 6.28%,–
O=C(NCCN1CCC(Cc2ccccc2)CC1)C1CCCN(S(=O)(=O)c2ccc(Cl)s2)C1 (stereo not drawn),–,"inconclusive: 22.4 µM [activator, partial curve, poor fit]"
Cc1cccc(NC(=O)C(Cc2ccccc2)n2cccc2)c1C (stereo not drawn),inactive: 18.7%,–
COc1ccc(SC[C@H](Cc2ccccc2)N2CC[C@@H](O)CCC2=O)cc1,–,"inconclusive: 31.6 µM [activator, single point]"
COc1cccc(/C=C2\SC(=S)N(CCCC(=O)N3CCCCC3CCO)C2=O)c1 (stereo not drawn),–,"inconclusive: 25.1 µM [activator, single point]"
CCn1ccc2cc(S(=O)(=O)N3CCCN(C(=O)Nc4ccc(C)c(F)c4)CC3)ccc21,–,"inconclusive: 35.5 µM [activator, partial curve, poor fit]"
COC(=O)C1(Cc2ccc(O)cc2)OC(=O)C(O)=C1c1ccc(O)cc1 (stereo not drawn),inactive: 6.09%,–
CCCCOc1ccccc1C(=O)Nc1nonc1-c1ccccc1,inactive: 16.3%,–
COc1ccc(CNC(=O)c2cc3oc4ccccc4c3n2C)cc1OC,–,"inconclusive: 35.5 µM [activator, partial curve, poor fit]"
CCCNC(=O)CN1C(=O)c2c(c3ccccc3n2C)C1c1ccc(OC)cc1 (stereo not drawn),inactive: 33.4%,–
CCc1ccc(S(=O)(=O)c2nnn3c2nc(N2CCC(C(N)=O)CC2)c2cc(Cl)ccc23)cc1,–,"inconclusive: 31.6 µM [activator, single point]"

# — PubChem BioAssay AID1347120 (National Center for Advancing Translational Sciences (NCATS), 2019)
